The values that follow come from ChEMBL document CHEMBL4888484, “Replenishing the malaria drug discovery pipeline: Screening and hit evaluation of the MMV Hit Generation Library 1 (HGL1) against asexual blood stage Plasmodium falciparum ,using a nano luciferase reporter read-out” (2022).

The whole screen tested about 150,000 compounds, of which about 540 (0.36%) showed an effect of 50% or more. This is one part of the list.

This experiment relates to Plasmodium falciparum. The experiment is described as follows: Primary screen in NF54 nanoGlo assay, in single point, at 2uM, 72h; a lower Z score goes with more inhibition. The format is functional, Erythrocyte. Particulars: timepoint 72 hour.
As usually defined, the % Inhibition is the drop in the measured response relative to a control, in per cent. In the case of `Cc1ccc(-n2cc(CCO)cn2)c(N)n1`, the “% Inhibition” value amounted to 7% and the Z score was -1.21.
In the case of `COc1ccc(N[C@H]2CCCN(C(=O)c3ccccc3-c3ccccc3F)C2)cc1OC`, the “% Inhibition” value is listed as -18% and the Z score came to 1.61.
The matching figures for `CC(C)(O)[C@H]1CCN(C(=O)c2cc(Cl)c[nH]c2=O)C1`: -8% and 1.46.
On to `COc1ccc(C(=O)NCc2ccc(OC3CCCC3)c(OC)c2)cc1OC`, for which the “% Inhibition” value is listed as -22% and the Z score worked out at 3.47.
In the same order, the values of `CC[C@@H]1C(=O)NCCCN1C(=O)Cn1nnnc1C(C)C` are -3% and 0.41.
The matching figures for `CCNC(=O)N1CCC2(CC1)N=C(C1CC1)NC2=O`: -7% and 1.28.
In the case of `O=C(Cn1cc(C(F)(F)F)ccc1=O)c1ccc2c(c1)CCC2`, the “% Inhibition” value is recorded as -2% and the Z score was 0.27.
In the same order, the values of `Cc1cc(C)n(C[C@H](C)N2CC(n3nc(C)cc3C)C2)n1` are -3% and 0.25.
In the same order, the values of `c1cc(Cn2cccn2)cc(-c2nc([C@H]3CCOC3)no2)c1` are -6% and 1.05.
For the compound `COc1ccc(S(=O)(=O)Nc2nc(C)c(C(=O)N3CCCCC3)s2)cc1`, the “% Inhibition” value is recorded as 17% and the Z score is -2.29.
In the same order, the values of `CCOc1ccc(CCNC(=O)[C@H]2CCCN(S(=O)(=O)c3c(C)n[nH]c3C)C2)cc1OCC` are -2% and 0.32.
With `CCS(=O)(=O)N1CCC[C@H](CCc2noc(-c3ccccn3)n2)C1`, the “% Inhibition” value was -3% and the Z score came out at 0.52.
In the same order, the values of `COc1ccc(CC(=O)Nc2nc(C3CC3)cs2)cc1OC` are -12% and 1.54.
In the case of `CC(=O)[C@@H]1C[C@H](c2nc(-c3cnc4ccccn34)no2)C1(C)C`, the “% Inhibition” value is -9% and the Z score worked out at 1.54.
Turning to `Cc1nnc(C(C)N2CC(C)Cc3ccccc32)o1` (centres undefined), the “% Inhibition” value is reported as -3% and the Z score amounted to 0.42.
In the same order, the values of `CN(C)c1ccc(S(=O)(=O)N2CCC[C@H](C(=O)N3CCCCCC3)C2)cc1` are -10% and 0.98.
In the same order, the values of `COc1cc(C(=O)N2CCN(CC3CC3)[C@@H]3CS(=O)(=O)C[C@@H]32)ccc1O` are 0% and -0.02.
In the same order, the values of `CCc1cnc(NC[C@H]2CC(=O)N(CCOC)C2)nc1` are 0% and -0.06.
Regarding `O=C(NCCOc1ccccc1)NCc1ccsc1`, the “% Inhibition” value is -10% and the Z score is 1.19.
Regarding `O=S(=O)(Cc1ccccc1)NCCNc1ccc(-n2cccn2)nn1`, the “% Inhibition” value is listed as -16% and the Z score amounted to 1.82.
In the same order, the values of `Cc1cc(O)c2cccc(-c3cccc4c3CCNC4)c2n1` are -5% and 0.79.
The matching figures for `COC(=O)c1ncccc1N1CCC[C@H](c2nccs2)C1`: -1% and 0.07.
Take `Cc1cc(-c2nc(-c3ccc(F)cc3)no2)c(C)n1CC(=O)Nc1ccc(F)cc1`: the “% Inhibition” value is on record as -8% and the Z score turned out to be 1.57.
In the same order, the values of `Cn1nc(C(F)(F)F)cc1NC(=O)[C@@H]1CCC(=O)c2cccn21` are -15% and 1.8.
The matching figures for `Cc1ccc(-n2nc(C(=O)Nc3cc(F)ccc3F)c3ccccc32)cc1`: -7% and 1.07.
The matching figures for `O=C(CN(CC1CC1)C(=O)c1cccs1)Nc1nc(-c2ccccc2)cn1-c1ccc(F)c(Cl)c1`: -15% and 1.49.
On to `O=C(Nc1ccc(F)c(C2CC2)c1)N1CCC[C@@H]1CO`, for which the “% Inhibition” value is recorded as -8% and the Z score was determined as 1.09.
For the compound `CC(=O)c1ccc(Br)cc1N`, the “% Inhibition” value was -15% and the Z score is 1.48.
The matching figures for `CC(C)c1nc(N2CCN(Cc3ccc(S(C)(=O)=O)cc3)CC2)no1`: 5% and -0.67.
The matching figures for `CC(C)c1nccc(N2CCC23CCOCC3)n1`: 11% and -1.42.
The matching figures for `Cc1cc(CNC(=O)c2cnc(Cn3cncn3)nc2O)c(C(F)(F)F)o1`: -10% and 1.32.
Consider `CC[C@H](C)NC(=O)c1coc(CN2CCN(Cc3ccc(N(C)C)cc3)CC2)n1`, for which the “% Inhibition” value is given as -4% and the Z score came out at 0.69.
Turning to `COc1cccc(-c2nc3ccccc3n2C)c1OCCn1ccnc1`, the “% Inhibition” value was -2% and the Z score turned out to be 0.38.
In the same order, the values of `CN(CC(F)(F)F)C(=O)Nc1cc(F)ccc1F` are 1% and -0.08.
The matching figures for `CC(=O)N1CCN(C2CN(C(C)c3cccc(F)c3)CC2C)CC1` (centres undefined): 5% and -0.7.
In the same order, the values of `CC1(C)COCCN1CC(=O)Nc1ccccc1Cc1ccccc1` are -14% and 1.88.
With `CCCCN(C(=O)Cc1n[nH]c(=O)[nH]1)C1CCCC1`, the “% Inhibition” value was -14% and the Z score was determined as 1.32.
In the same order, the values of `CC1(C)CN(c2ccc3nnc(C(F)(F)F)n3n2)CCS1(=O)=O` are -6% and 0.81.
As for `O=C1CC[C@@]2(CCCN(C(=O)c3ccc(=O)[nH]c3)C2)CN1CCc1ccccn1`, the “% Inhibition” value is given as -10% and the Z score was found to be 1.47.
The matching figures for `CCC1(C)CC(=O)N(Cc2ccc(Cl)cc2)C(=O)C1`: 4% and -0.61.
In the same order, the values of `Cc1noc(C(=O)N2CCC(c3ccccc3)(N3CCCC3)CC2)n1` are 9% and -1.08.
In the same order, the values of `N#CC1(COC(=O)c2cc(F)cc(F)c2)CCOCC1` are 5% and -0.81.
